A collection of fitness landscapes (doi:10.1016/j.celrep.2020.107928)
In all, about 81,000 sequences were measured (“one-hybrid fitness for binding parS DNA”: median about -0.17, highest 2% from about 0.51 on). This is one part of the list.

B1: Caulobacter ParB omega fusion; a variant is named by its letters at X, in order, B8GW30 (parent)
chain: MESVVVGEPGMSEGRRGLGRGLSALLGEVDAAPAQAPGEQLGGSREAPIEILQRNPDQPRRTFREEDLEDLSNSIREKGVLQPILVRPSPDTAGEYQIVAGERAWRAAQRAGLKTVPIMVRELDDLAVLEIGIIENVQRADLNVLEEALSYKVLMEKFERTQENIAQTIGKSXSHVANXMRLLXLPDEVQSYLVSGELTAXHARAIAAAADPVALAKQIIEGGLSVRETEALARKAPNLSAGKSKGGRPPRVKDTDTQALESDLSSVLGLDVSIDHRGSTGTLTITYATLEQLDDLCNRLTRGI

Variants of: B1
Assay: one-hybrid fitness for binding parS DNA (scaled: cognate 1, non-cognate 0); higher = stronger binding
Details: with parS DNA site
Summary of the method: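 The reporter was HIS3, with the binding site 19 bp from the promoter, in E. coli USO used for bacterial one-hybrid selection of Caulobacter ParB libraries with four specificity codons randomised. Growth was on M9 lacking histidine, with 0.1 mM IPTG and 5 mM 3-AT, for 48 hours at 37°C. Illumina sequencing covered plasmids before and after selection; three replicate libraries were pooled and variants with under 10 reads dropped. A fitness score is the log change in variant-to-wild-type read ratio, rescaled to the cognate and non-cognate references.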

Variant	one-hybrid fitness for binding parS DNA
TCFD	≤ 0.2
RNMA	0.47
DLYF	≤ 0.2
KHTS	≤ 0.2
DSQT	≤ 0.2
CEYR	≤ 0.2
VNFG	≤ 0.2
PPYV	≤ 0.2
LWPI	≤ 0.2
HNML	≤ 0.2
PRKP	≤ 0.2
HKNR	≤ 0.2
PVFL	≤ 0.2
FNHS	≤ 0.2
EHAS	≤ 0.2
RIGV	≤ 0.2
WVKR	≤ 0.2
NCQS	≤ 0.2
TNEW	≤ 0.2
GMNG	≤ 0.2
FRPF	≤ 0.2
RRIY	0.332
LICE	≤ 0.2
QERI	≤ 0.2

Variant	one-hybrid fitness for binding parS DNA
QTED	≤ 0.2
QRHG	≤ 0.2
SPYV	≤ 0.2
FRPT	≤ 0.2
QSCN	≤ 0.2
RVGE	≤ 0.2
RWKL	≤ 0.2
CQRS	≤ 0.2
HNTG	≤ 0.2
WDSS	≤ 0.2
DVHV	≤ 0.2
RMDT	0.794
QKLM	≤ 0.2
ETLL	≤ 0.2
RWSR	≤ 0.2
SVPD	≤ 0.2
WDTG	≤ 0.2
CTFF	≤ 0.2
TLGV	≤ 0.2
LQWY	≤ 0.2
IAMC	≤ 0.2
NTFC	≤ 0.2
RTWP	0.271
RMHG	1.01

Variant	one-hybrid fitness for binding parS DNA
IPHS	≤ 0.2
TTKC	≤ 0.2
FTQS	≤ 0.2
KYPC	≤ 0.2
SLLT	≤ 0.2
DIRS	≤ 0.2
YAGC	≤ 0.2
ADRG	≤ 0.2
RYRR	≤ 0.2
EECG	≤ 0.2
GVMC	≤ 0.2
YFDV	≤ 0.2
RFMF	0.245
RLEF	0.247
VVLT	≤ 0.2
VNKH	≤ 0.2
GANR	≤ 0.2
YFDT	≤ 0.2
DRTY	≤ 0.2
AYNP	≤ 0.2
HGFD	≤ 0.2
QMKL	≤ 0.2
WYNG	≤ 0.2
EAPD	≤ 0.2

Variant	one-hybrid fitness for binding parS DNA
ELQS	≤ 0.2
EWPT	≤ 0.2
LLFC	≤ 0.2
WQIG	≤ 0.2
DQQG	≤ 0.2
LPEC	≤ 0.2
THIC	≤ 0.2
DNVM	≤ 0.2
VWEC	≤ 0.2
HGTM	≤ 0.2
RWHT	0.655
EAFF	≤ 0.2
RHHP	≤ 0.2
GRPD	≤ 0.2
NVAY	≤ 0.2
YRKV	≤ 0.2
PVRV	≤ 0.2
RMHI	≤ 0.2
FPMS	≤ 0.2
LVYV	≤ 0.2
WSSM	≤ 0.2
AWIP	≤ 0.2
YMNC	≤ 0.2
CWSS	≤ 0.2

Variant	one-hybrid fitness for binding parS DNA
ISHC	≤ 0.2
SAET	≤ 0.2
DSMR	≤ 0.2
QAPG	≤ 0.2
PFRG	≤ 0.2
HYYY	≤ 0.2
SEGF	≤ 0.2
HNMR	≤ 0.2
LGYG	≤ 0.2
QNYN	≤ 0.2
DVCR	≤ 0.2
RHMD	≤ 0.2
TWTD	≤ 0.2
HKHH	≤ 0.2
WEQI	≤ 0.2
TRWL	≤ 0.2
SDVE	≤ 0.2
MHHP	≤ 0.2
HLNK	≤ 0.2
PLRS	≤ 0.2
LKMG	≤ 0.2
TVPT	≤ 0.2
RCHP	≤ 0.2
CYYR	≤ 0.2

Variant	one-hybrid fitness for binding parS DNA
AFAK	≤ 0.2
HWVL	≤ 0.2
LNSG	≤ 0.2
SEHC	≤ 0.2
CQWG	≤ 0.2
TKHF	≤ 0.2
PSPH	≤ 0.2
ERSV	≤ 0.2
DHDS	≤ 0.2
NPSG	≤ 0.2
LAAM	≤ 0.2
PGNH	≤ 0.2
CGPS	≤ 0.2
SYYG	≤ 0.2
WQRM	≤ 0.2
QLSF	≤ 0.2
VLYR	≤ 0.2
KSFM	≤ 0.2
FIPE	≤ 0.2
AKLV	≤ 0.2
RDQK	≤ 0.2
NRTE	≤ 0.2
NVDS	≤ 0.2
PTEN	≤ 0.2

Variant	one-hybrid fitness for binding parS DNA
GSTF	≤ 0.2
LENS	≤ 0.2
TVMR	≤ 0.2
YRMM	≤ 0.2
PYWT	≤ 0.2
FVYG	≤ 0.2
KLRV	≤ 0.2
MRQG	≤ 0.2
NMER	≤ 0.2
DQYG	≤ 0.2
PSKL	≤ 0.2
ITEV	≤ 0.2
LHRV	≤ 0.2
RANW	0.329
NDNI	≤ 0.2
HYEL	≤ 0.2
PQQW	≤ 0.2
NWRR	≤ 0.2
LREA	≤ 0.2
FSSD	≤ 0.2
LCQS	≤ 0.2
ASHH	≤ 0.2
QTDI	≤ 0.2
FEPI	≤ 0.2

Variant	one-hybrid fitness for binding parS DNA
KQFN	≤ 0.2
WMTV	≤ 0.2
ARLC	≤ 0.2
RTLF	0.267
MRVT	≤ 0.2
RSTL	≤ 0.2
CLPL	≤ 0.2
SPER	≤ 0.2
RCSK	0.216
QWLY	≤ 0.2
LAKY	≤ 0.2
LFVN	≤ 0.2
PGTC	≤ 0.2
YPDR	≤ 0.2
GLTR	≤ 0.2
FFKS	≤ 0.2
QNVS	≤ 0.2
ETLP	≤ 0.2
WVHL	≤ 0.2
TRCG	≤ 0.2
SVLR	≤ 0.2
IWHG	≤ 0.2
HVNK	≤ 0.2
RGCS	0.595

Variant	one-hybrid fitness for binding parS DNA
THTI	≤ 0.2
YKHY	≤ 0.2
QMKN	≤ 0.2
DHSG	≤ 0.2
SWPE	≤ 0.2
SWAS	≤ 0.2
VRAQ	≤ 0.2
PYVG	≤ 0.2
PGRM	≤ 0.2
AHAK	≤ 0.2
MYTC	≤ 0.2
KPLN	≤ 0.2
ACDC	≤ 0.2
SAGN	≤ 0.2
HTGL	≤ 0.2
YIDF	≤ 0.2
NTMH	≤ 0.2
TYLR	≤ 0.2
PTQT	≤ 0.2
RDGI	≤ 0.2
KHAY	≤ 0.2
HDVA	≤ 0.2
AQRF	≤ 0.2
MAQS	≤ 0.2

Variant	one-hybrid fitness for binding parS DNA
SPFR	≤ 0.2
QSHS	≤ 0.2
LIMR	≤ 0.2
QYFS	≤ 0.2
HQQS	≤ 0.2
ISPI	≤ 0.2
NHYS	≤ 0.2
SMDG	≤ 0.2
VART	≤ 0.2
EHPL	≤ 0.2
KRQH	≤ 0.2
PITV	≤ 0.2
LSPL	≤ 0.2
RCFG	1.01
VFCL	≤ 0.2
FAGR	≤ 0.2
DGHY	≤ 0.2
PLDK	≤ 0.2
WLGW	≤ 0.2
ISSW	≤ 0.2
TACV	≤ 0.2
KMAA	≤ 0.2
ATKY	≤ 0.2
YPPL	≤ 0.2

Variant	one-hybrid fitness for binding parS DNA
TRCK	≤ 0.2
TLQT	≤ 0.2
RLLD	0.231
PCPD	≤ 0.2
RKFG	0.946
IARQ	≤ 0.2
TIMD	≤ 0.2
RQLV	≤ 0.2
SYDS	≤ 0.2
RAWV	≤ 0.2
RQLK	≤ 0.2
INEL	≤ 0.2
LCSI	≤ 0.2
YVKC	≤ 0.2
CCNC	≤ 0.2
RYYF	0.22
VPHD	≤ 0.2
SFLI	≤ 0.2
MYGF	≤ 0.2
QMSC	≤ 0.2
TYHH	≤ 0.2
SWVD	≤ 0.2
PFSE	≤ 0.2
AFRT	≤ 0.2

Variant	one-hybrid fitness for binding parS DNA
EQDS	≤ 0.2
TGCE	≤ 0.2
RHPH	≤ 0.2
RHQQ	≤ 0.2
KHQS	≤ 0.2
PQTY	≤ 0.2
SKKY	≤ 0.2
VSAL	≤ 0.2
ITLC	≤ 0.2
IPKY	≤ 0.2
FRMC	≤ 0.2
PEHS	≤ 0.2
YMMV	≤ 0.2
SAWR	≤ 0.2
IKMM	≤ 0.2
RFMT	0.754
HDLV	≤ 0.2
LLSI	≤ 0.2
IMSC	≤ 0.2
FGIY	≤ 0.2
ASLN	≤ 0.2
RFIE	≤ 0.2
QIMM	≤ 0.2
IMAV	≤ 0.2

Variant	one-hybrid fitness for binding parS DNA
LQSR	≤ 0.2
AHMA	≤ 0.2
WIRR	≤ 0.2
TLIF	≤ 0.2
AVPI	≤ 0.2
HMLC	≤ 0.2
HYDV	≤ 0.2
AIRS	≤ 0.2
PNWG	≤ 0.2
YVQE	≤ 0.2
FWGR	≤ 0.2
FNQL	≤ 0.2
RGDV	≤ 0.2
HLHG	≤ 0.2
AIFT	≤ 0.2
FTQV	≤ 0.2
YDLG	≤ 0.2
PLPN	≤ 0.2
